Experimental data as given in the supplement of paper PMC12217912.
Some of the results follow. Sequences were assembled here from the parent chain. Values near 0.05 are background.

B1: TEV protease; numbered along this chain (parent)
chain: MGESLFKGPRDYNPISSSICHLTNESDGHTTSLYGIGFGPFIITNKHLFRRNNGTLVVQSLHGVFKVKDTTTLQQHLVDGRDMIIIRMPKDFPPFPQKLKFREPQREERICLVTTNFQTKSMSSMVSDTSCTFPSGDGIFWKHWIQTKDGQCGSPLVSTRDGFIVGIHSASNFTNTNNYFTSVPKNFMELLTNQEAQQWVSGWRLNADSVLWGGHKVFMVKPEEPFQPVKEATQL

Variants of: B1
Test: raw area under fraction-flipped curve 0-4 h after induction (AUC4h, not background-subtracted), DNA-recorder readout of cleavage of the substrate (dimensionless); higher = more cleavage of the substrate by the protease variant
Details: temperature: 34 °C; time window: 0-4 h after rhamnose induction
Method: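 In vivo DNA recorder in E. coli TOP10(DE3) ΔrhaA at 34 °C. Each TEVp single-site mutant (parent TEVp 0) is paired with a single-site variant of the 7-mer TEVs (canonical ENLYFQ|S). The substrate sits between flexible linkers in a Bxb1-sfGFP-TEVs-SsrA fusion, so cleavage stabilises Bxb1 and speeds flipping of a recombination array, read by NGS. The value is the raw area under the fraction-flipped curve over 0-4 h after rhamnose induction (AUC4h), with ≥20 reads per time point. It is not background-subtracted; inactive controls average about 0.047.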
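Note: Bxb1 expression induced with 0.2% (w/v) L-rhamnose at OD600 near 0.5, cultures sampled hourly, flipped fraction per protease–substrate barcode pair counted by paired-end Illumina sequencing.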

| Variant | area with substrate ENAYFQS | area with substrate ENCYFQS | area with substrate ENFYFQS | area with substrate ENKYFQS | area with substrate ENPYFQS | area with substrate ENQYFQS | area with substrate ENRYFQS | area with substrate ENSYFQS | area with substrate ENTYFQS | area with substrate ENVYFQS | area with substrate ENYYFQS | area with substrate ENDYFQS | area with substrate ENEYFQS | area with substrate ENHYFQS | area with substrate ENIYFQS | area with substrate ENNYFQS | area with substrate ENGYFQS | area with substrate ENMYFQS | area with substrate ENWYFQS |
| --- | --- | --- | --- | --- | --- | --- | --- | --- | --- | --- | --- | --- | --- | --- | --- | --- | --- | --- | --- |
| P134N | 0.0551 | 0.0434 | 0.0915 | 0.0516 | 0.0765 | 0.0612 | 0.0024 | 0.0652 | 0.0619 | 0.0692 | 0.0594 | – | – | – | – | – | – | – | – |
| P134V | 0.052 | 0.0639 | 0.059 | 0.0553 | – | 0.0627 | – | 0.0501 | 0.0627 | 0.0615 | 0.0558 | 0.0618 | 0.0583 | 0.0564 | 0.0879 | 0.0718 | – | – | – |
| S135C | 0.0616 | 0.0502 | 0.0625 | – | 0.0509 | 0.0571 | 0.0623 | 0.0563 | 0.0421 | 0.0648 | – | 0.0626 | 0.0628 | 0.0483 | 0.201 | 0.0628 | 0.0556 | 0.0445 | 0.0746 |
| S135W | 0.0505 | 0.0481 | 0.0526 | 0.0681 | 0.0422 | 0.0629 | 0.0634 | 0.0585 | – | 0.0556 | – | – | 0.0457 | 0.0352 | – | – | 0.0762 | 0.064 | 0.06 |
| G138K | 0.0613 | 0.0593 | – | 0.0532 | 0.0623 | 0.0728 | – | 0.0711 | – | 0.0625 | 0.0649 | 0.0662 | – | – | – | – | – | – | – |
| G138S | 0.0658 | 0.0677 | – | 0.0622 | – | 0.0672 | – | – | 0.0647 | 0.0612 | – | – | 0.0674 | – | – | 0.066 | 0.0786 | – | – |
| F140N | 0.0656 | 0.0732 | 0.0715 | 0.0575 | 0.0693 | 0.0665 | 0.0324 | 0.0527 | 0.0578 | 0.068 | 0.0619 | 0.0746 | 0.0706 | 0.0636 | – | 0.0648 | 0.0676 | 0.0594 | 0.0048 |
